Columns and labels:
[1] = target: T1, human FcRn-eGFP transduced HeLa cells (Homo sapiens, UniProt P55899); experiment: Blocking of IgG-FcRn immunofluorescence staining (Example 5); type: cell-based; details: 100 nM Alexa647 human IgG; 1-1000 nM His6-tagged Z variant; pH 6.0
T1 construct: expressed in transfected cells; host or cells: HeLa cervix adenocarcinoma cells (lentiviral transduction), formaldehyde-fixed and saponin-permeabilised
Description: (§1) Human or murine FcRn-eGFP transduced HeLa cells were prepared as described in Example 4. […] The cells were incubated for 1 h at 37° C. on a shaker in the dark, washed with 2×100 μl PBS-casein pH 6.0 and re-suspended in 180 μl of PBS, pH 6.0, plus 1% BSA. Data from 10,000 cells/well (except somewhat fewer cells for mouse 100 nM mIgG-Alexa647) were obtained using a Gallios Flow Cytometer (Beckman Coulter) and the data was analyzed using Kaluza software (Beckman Coulter).

[2] = target: T2, murine FcRn-eGFP transduced HeLa cells (Mus musculus, UniProt Q61559, INS109QKRG); experiment: as above; type: cell-based; details: 100 nM Alexa647 mouse IgG; 1-1000 nM His6-tagged Z variant; pH 6.0
T2 construct: expressed in transfected cells; host or cells: HeLa cervix adenocarcinoma cells (lentiviral transduction), formaldehyde-fixed and saponin-permeabilised
T2 sequence (Q61559 with tags, fused parts or gaps INS109QKRG): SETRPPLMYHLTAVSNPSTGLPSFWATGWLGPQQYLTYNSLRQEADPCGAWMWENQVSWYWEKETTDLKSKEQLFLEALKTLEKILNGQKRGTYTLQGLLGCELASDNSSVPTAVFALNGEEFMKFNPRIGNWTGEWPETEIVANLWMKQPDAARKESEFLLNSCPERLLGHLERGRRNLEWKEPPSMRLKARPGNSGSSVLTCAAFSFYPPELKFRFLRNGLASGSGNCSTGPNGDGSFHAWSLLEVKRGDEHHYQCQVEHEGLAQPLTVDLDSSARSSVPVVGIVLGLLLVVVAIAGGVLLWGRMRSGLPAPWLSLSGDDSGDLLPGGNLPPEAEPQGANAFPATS
T2 sequence (P01887 21-119 partner): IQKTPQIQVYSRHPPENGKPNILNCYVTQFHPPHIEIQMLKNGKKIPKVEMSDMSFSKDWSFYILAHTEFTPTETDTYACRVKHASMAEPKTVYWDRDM
Description: as §1

[3] = target: T1, human FcRn-eGFP transduced HeLa cells; experiment: Flow cytometry binding of Alexa647 labeled Z variants to FcRn-eGFP HeLa cells; type: cell-based; details: 620 nM Alexa647 labeled His6-tagged Z variant; pH 6.0
Description: (§2) hFcRn-eGFP and mFcRn-eGFP HeLa cells were harvested by trypsination and washed twice in PBS at pH 6.0 before counting. 100,000 cells were pipetted per well of a v-bottomed 96 well plate (Nunc, cat no 277143) and the cells in the plate were subsequently pelleted at 1,700 rpm for 4 min at 4° C. The supernatants were removed and the cells were fixed with 50 μl of 2% formaldehyde (Sigma Aldrich, cat. no. F8775) in PBS at pH 6.0 for 10 min at RT. […] Transduced HeLa cells, incubated with buffer alone, were used as control. The cells were incubated for 1 h at 8° C. on a shaker in the dark, washed with 2×100 μl PBSC and resuspended in 180 μl of PBS pH 6.0 plus 1% BSA (fraction V, Merck, cat. no. 1.12018.0100). 10,000 cells/well were analyzed in a Gallios Flow Cytometer (Beckman Coulter) and the data was analyzed using Kaluza software (Beckman Coulter).

[4] = target: T3, mouse FcRn-eGFP transduced HeLa cells (Mus musculus, UniProt Q61559, INS109QKRG); experiment: as above; type: cell-based; details: 620 nM Alexa647 labeled His6-tagged Z variant; pH 6.0
T3 construct: expressed in transfected cells; host or cells: HeLa cervix adenocarcinoma cells (lentiviral transduction), formaldehyde-fixed and saponin-permeabilised
T3 sequence (Q61559 with tags, fused parts or gaps INS109QKRG): T2 sequence (Q61559 with tags, fused parts or gaps INS109QKRG)
T3 sequence (P01887 21-119 partner): T2 sequence (P01887 21-119 partner)
Description: as §2

human FcRn = human FcRn (Homo sapiens, UniProt P55899); experiment: Biacore kinetic analysis of His6-tagged Z variants; type: binding; parameters: made in house; host or cells: human SKOV-3 cells, lentivirally transduced, secreted; purified on immobilized human IgG; details: hFcRn, pH 6.0, Langmuir 1:1 model, approximate
Chain of human FcRn (P55899 24-290): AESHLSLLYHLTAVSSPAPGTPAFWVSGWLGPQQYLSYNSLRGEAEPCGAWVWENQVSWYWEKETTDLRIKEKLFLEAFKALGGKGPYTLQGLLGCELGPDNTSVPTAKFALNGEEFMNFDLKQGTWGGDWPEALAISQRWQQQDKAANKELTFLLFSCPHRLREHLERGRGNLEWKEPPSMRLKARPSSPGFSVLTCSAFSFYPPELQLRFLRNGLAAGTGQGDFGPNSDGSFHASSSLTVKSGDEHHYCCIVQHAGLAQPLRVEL
Chain of human FcRn (P61769 21-119 partner): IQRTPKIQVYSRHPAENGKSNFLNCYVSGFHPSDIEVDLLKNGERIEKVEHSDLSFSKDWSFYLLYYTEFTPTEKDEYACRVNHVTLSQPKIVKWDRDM
Description: The interaction of FcRn binding His6-tagged Z variants with human FcRn was analyzed in a Biacore 2000 instrument (GE Healthcare). Human FcRn was immobilized in a flow cell on the carboxylated dextran layer of a CM5 chip surface (GE Healthcare). The immobilization was performed using amine coupling chemistry according to the manufacturer's protocol and using HBS-EP (GE Healthcare) as running buffer. One flow cell surface on the chip was activated and deactivated for use as blank during analyte injections. In the two binding experiments presented below, McIlvaines phosphate-citrate buffer pH 6.0 supplemented with 0.005% Tween-20 (0.005% PCT) was used as running buffer. In all experiments, a flow rate of 50 μl/min was used.
In another experiment, approximate kinetic constants (kon and koff) and affinities (KD) were determined for a subset of His6-tagged Z variants. Three concentrations of the Z variants were injected for 1 minute followed by dissociation in running buffer for 1 minute. The surfaces were equilibrated with running buffer during 7.5 minutes before the start of next cycle. […] Kinetic constants were calculated from the sensorgrams using the Langmuir 1:1 model of BiaEvaluation software 4.1 (GE Healthcare).

[5] = CD analysis with variable temperature measurement; type: physicochemical; details: His6-tagged Z variants 0.5 mg/ml in PBS; CD at 221 nm, 20 to 90° C.
Description: Purified His6-tagged Z variants were diluted to 0.5 mg/ml in PBS. For each diluted Z variant, a CD spectrum at 250-195 nm or 250-190 nm was obtained at 20° C. In addition, a variable temperature measurement (VTM) was performed to determine the melting temperature (Tm). In the VTM, the absorbance was measured at 221 nm while the temperature was raised from 20 to 90° C., with a temperature slope of 5° C./min. A new CD spectrum was obtained at 20° C. after the heating procedure in order to study the refolding ability of the Z variants. The CD measurements were performed on a Jasco J-810 spectropolarimeter (Jasco Scandinavia AB) using a cell with an optical path-length of 1 mm.

T1 sequence (P55899 24-365): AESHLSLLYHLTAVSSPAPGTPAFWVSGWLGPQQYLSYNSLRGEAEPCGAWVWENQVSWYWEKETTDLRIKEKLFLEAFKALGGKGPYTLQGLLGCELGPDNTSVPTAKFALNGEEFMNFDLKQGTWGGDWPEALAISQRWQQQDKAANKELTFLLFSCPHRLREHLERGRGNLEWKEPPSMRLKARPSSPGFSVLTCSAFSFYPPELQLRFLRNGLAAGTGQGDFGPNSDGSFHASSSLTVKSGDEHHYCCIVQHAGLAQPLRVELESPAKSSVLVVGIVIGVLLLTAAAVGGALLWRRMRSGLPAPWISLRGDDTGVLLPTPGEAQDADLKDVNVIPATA
T1 sequence (P61769 21-119 partner): as the sequence (P61769 21-119 partner) above

Z07918: FcRn binding Z variant, 58 amino acid residues, from phage display selection (VDAKYAKEQDAAAHEIRWLPNLTFDQRVAFIHKLADDPSQSSELLSEAKKLNDSQAPK; Engineered FcRn binding polypeptide)
blocking of hIgG binding to hFcRn [1]: effectively blocked hIgG binding to hFcRn (FIG. 6, Panel A) in a dose dependent manner
blocking of mIgG binding to mFcRn [2]: also blocked mIgG binding to mFcRn (FIG. 6, Panel B) although less efficiently compared to hIgG-binding
binding to HeLa cells displaying human FcRn-eGFP [3]: capable of binding
binding to HeLa cells displaying murine FcRn-eGFP [4]: capable of binding
Kd (human FcRn): 16 nM
Tm (° C.) [5]: 49 °C

From patent US9975943B2, “Polypeptides” (AFFIBODY AB, priority 2013, dated 2018)
